The text below walks through data of the supplement of paper PMC6135742.

Counter-ions that a name gives are not always drawn. Whole data set: some 2,600 compounds, median “MBP+ mature oligodendrocyte number relative to DMSO vehicle control” near -0.34, cut for the highest 2% near 13. The list shows a part of the results.
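Further: 10 µM single dose with 3-day oligodendrocyte differentiation.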

For the experiment, the system named is jimpy (Plp1 jimpy) mouse iPSC-derived oligodendrocyte progenitor cells. Kind of experiment: MBP+ mature oligodendrocyte number relative to DMSO vehicle control (SDs above negative control mean); higher = more surviving jimpy oligodendrocytes (rescue). Particulars: 10 µM; 3 days.
In the case of `Nc1ccc(-c2ccc3ncc4ccc(=O)n(-c5cccc(C(F)(F)F)c5)c4c3c2)cn1` [Torin 2], the “MBP+ mature oligodendrocyte number” value is less than -6.01.

Regarding `CCCCCCCCCCCCCCCCn1cc[n+](Cc2ccccc2)c1C`, the “MBP+ mature oligodendrocyte number” value is -4.64.

Consider `COc1cccc2c1C(=O)c1c(O)c3c(c(O)c1C2=O)C[C@@](O)(C(=O)CO)C[C@@H]3O[C@H]1C[C@H](N)[C@@H](O)[C@H](C)O1` [Epirubicin HCl], for which the “MBP+ mature oligodendrocyte number” value was -6.26.

With `CCCN(CCC)CCc1cccc2c1CC(=O)N2` [Ropinirole hydrochloride], the “MBP+ mature oligodendrocyte number” value came out at 0.217.

As to `CCCN(CCC)CCc1cccc2c1CC(=O)N2` [Ropinirole HCl], the “MBP+ mature oligodendrocyte number” value stood at 2.17.

Consider `N=C(N)c1ccc(N)cc1` [4-Aminobenzamidine dihydrochloride], for which the “MBP+ mature oligodendrocyte number” value was -1.65.

Turning to `Cc1[nH]c(=O)c(C#N)cc1-c1ccc2nccn2c1` [Olprinone hydrochloride], the “MBP+ mature oligodendrocyte number” value was -1.18.

Consider `NC(=O)c1cccc(-c2cccc(OC(=O)NC3CCCCC3)c2)c1`, for which the “MBP+ mature oligodendrocyte number” value amounted to 3.36.

Turning to `CC(=O)O[C@H]1C(=O)[C@@]2(C)[C@H]([C@H](OC(=O)c3ccccc3)[C@]3(O)C[C@H](OC(=O)[C@H](O)[C@@H](NC(=O)c4ccccc4)c4ccccc4)C(C)=C1C3(C)C)[C@]1(OC(C)=O)CO[C@@H]1C[C@@H]2O` [Paclitaxel], the “MBP+ mature oligodendrocyte number” value is -4.69.

As for `OCCn1cc(-c2cnc3nnn(Cc4ccc5ncccc5c4)c3n2)cn1`, the “MBP+ mature oligodendrocyte number” value amounted to 3.69.

In the case of `OC1(c2ccc(Cl)cc2)CCN(Cc2c[nH]c3ccccc23)CC1`, the “MBP+ mature oligodendrocyte number” value is -3.66.

For `Cc1ncc([N+](=O)[O-])n1CC(C)O` (stereo unspecified) [Secnidazole], the “MBP+ mature oligodendrocyte number” value amounted to 0.395.

As for `COc1ccc2cc([C@H](C)C(=O)O)ccc2c1` [(-)-Naproxen sodium], the “MBP+ mature oligodendrocyte number” value is -0.323.

Consider `COc1ccc2cc([C@H](C)C(=O)O)ccc2c1` [Naproxen], for which the “MBP+ mature oligodendrocyte number” value is -1.19.

As for `N#Cc1cc(CN2CCC(Nc3ncnc4sc(Cl)cc34)CC2)ccc1F`, the “MBP+ mature oligodendrocyte number” value was -0.326.

`C[C@]12CCC(=O)C=C1[C@@H]1C[C@@H]1[C@H]1[C@@H]3[C@@H]4C[C@@H]4[C@@]4(CCC(=O)O4)[C@@]3(C)CC[C@@H]12` [Drospirenone]: the “MBP+ mature oligodendrocyte number” value is 5.69.

`Nc1cc(N2CCCCC2)nc(N)[n+]1[O-]` [Minoxidil]: the “MBP+ mature oligodendrocyte number” value is -0.833.

As for `Nc1ncnc2c1ncn2[C@@H]1O[C@H](COP(=O)(O)OP(=O)(O)OP(=O)(O)OP(=O)(O)OC[C@@H]2O[C@H](n3cnc4c(N)ncnc43)C(O)[C@@H]2O)[C@H](O)C1O` (stereo partly specified) [P1,P4-Di(adenosine-5')tetraphosphate triammonium], the “MBP+ mature oligodendrocyte number” value was 0.764.

Regarding `CCOc1cc(C(=O)Nc2ccc(Cl)c(-c3nc4ccccc4[nH]3)c2)cc(OCC)c1OCC`, the “MBP+ mature oligodendrocyte number” value is -2.44.

For `CC1(C)S[C@@H]2[C@H](NC(=O)[C@H](N)c3ccccc3)C(=O)N2[C@H]1C(=O)O` [Ampicillin sodium], the “MBP+ mature oligodendrocyte number” value turned out to be 1.22.

As for `CC1(C)S[C@@H]2[C@H](NC(=O)[C@H](N)c3ccccc3)C(=O)N2[C@H]1C(=O)O` [Ampicillin Trihydrate], the “MBP+ mature oligodendrocyte number” value was 2.18.
